Experimental data taken from the supplement of paper PMC9446081.
Screen size: about 39,000 compounds; about 220 (0.56%) showed activity. The list shows a part of the results.

test system: Escherichia coli K-12 BW25113; experiment: relative growth (OD600 normalised to plate interquartile mean) (fraction); higher = less growth inhibition, active = 0.2 or less; details: 50 µM; LB; incubation time: overnight (16-24 h)
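Note: static incubation at 37 °C against the wild-type strain, values averaged over two biological replicates.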

Compound	relative growth
C[C@H]1CN([C@@H](C)CO)C(=O)c2cccc(NS(=O)(=O)c3cn(C)cn3)c2O[C@@H]1CN(C)C(=O)Nc1ccc2c(c1)OCO2	inactive: 1.02
C[C@H](CO)N1C[C@H](C)[C@@H](CN(C)S(=O)(=O)c2cn(C)cn2)Oc2ccc(NC(=O)CCC(F)(F)F)cc2CC1=O	inactive: 0.983
C[C@H]1CN([C@@H](C)CO)C(=O)Cc2cc(NS(C)(=O)=O)ccc2O[C@@H]1CN(C)S(=O)(=O)c1cccs1	inactive: 0.998
C[C@H](CO)N1C[C@H](C)[C@H](CN(C)C(=O)c2cc(-c3ccccc3)on2)OCc2cn(nn2)CCCC1=O	inactive: 1.01
O=C(NCc1ccccc1)[C@@H]1c2ccccc2C(=O)N(Cc2ccccc2C(F)(F)F)[C@H]1c1ccc(CO)cc1	inactive: 1
C[C@H](CO)N1C[C@H](C)[C@H](CN(C)Cc2ccc(C(F)(F)F)cc2)Oc2c(NC(=O)Nc3ccc4c(c3)OCO4)cccc2C1=O	inactive: 1.01
Cc1nc(CSCc2ccc(Cl)cc2Cl)cs1	inactive: 1.02
CCN1CCCC[C@@H]1C(=O)O	inactive: 0.994
C[C@@H]1CCCCO[C@H](CN(C)Cc2ccc(C(F)(F)F)cc2)[C@@H](C)CN([C@H](C)CO)C(=O)c2cc(NC(=O)c3ccccc3)ccc2O1	inactive: 1
C[C@@H]1CN([C@@H](C)CO)S(=O)(=O)c2ccc(C#CC3CC3)cc2O[C@H]1CN(C)C(=O)Cc1ccncc1	inactive: 1.04
C[C@H](CO)N1C[C@H](C)[C@@H](CN(C)S(=O)(=O)c2cccs2)Oc2c(NC(=O)Nc3cccc4ccccc34)cccc2C1=O	inactive: 1.01
COC(=O)c1c2oc(c1C(=O)OC)C(=O)N[C@@H](Cc1ccccc1)Cn1cc(nn1)CNC(=O)[C@H](Cc1ccccc1)NC(=O)N[C@@H](COC(=O)NCCCCCC(=O)NO)CC2	inactive: 1.02
C[C@H]1CCCCO[C@H](CN(C)Cc2ccccc2)[C@@H](C)CN([C@@H](C)CO)C(=O)c2cc(NC(=O)c3ccncc3)ccc2O1	inactive: 0.995
Cc1ccc(S(=O)(=O)Nc2ccc3c(c2)C(=O)N([C@H](C)CO)C[C@H](C)[C@@H](CN(C)S(=O)(=O)c2ccc(C)cc2)OCCCC[C@H](C)O3)cc1	inactive: 0.937
CCOc1ccc2nc(C34CC5CC(CC(C5)C3)C4)ccc2c1	inactive: 1.02
O=C(C[C@H]1CC[C@H]2[C@@H](COC[C@H](O)CN2S(=O)(=O)c2ccc(F)cc2)O1)N[C@H]1CCN(Cc2ccccc2)C1	inactive: 1.01
C[C@H]1CN([C@@H](C)CO)C(=O)c2cc(NC(=O)CCCCCC(=O)Nc3ccccc3N)ccc2O[C@@H]1CN(C)S(C)(=O)=O	inactive: 0.987
Cc1cccc(S(=O)(=O)N2C[C@H](O)COC[C@H]3O[C@H](CC(=O)NCCCN4CCOCC4)CC[C@@H]32)c1	inactive: 0.988
COC(=O)CCC(=O)OC	inactive: 1.02
CC(C)c1ccccc1OC[C@@H](O)CN	inactive: 0.975

Compound	relative growth
O=C(NS(=O)(=O)c1ccccc1)C1CC1	inactive: 0.956
C[C@H]1CN([C@@H](C)CO)C(=O)Cc2cc(NC(=O)Nc3ccc4c(c3)OCO4)ccc2O[C@H]1CN(C)Cc1ccc(Oc2ccccc2)cc1	inactive: 0.986
C[C@H](CO)N1C[C@H](C)[C@H](CN(C)C(=O)Nc2ccc3c(c2)OCO3)OCCCC[C@H](C)Oc2ccc(NC(=O)Nc3ccccc3)cc2C1=O	inactive: 1.05
Cc1noc(C)c1NC(=O)Nc1ccc2c(c1)CC(=O)N([C@@H](C)CO)C[C@@H](C)[C@@H](CN(C)Cc1ccc(Oc3ccccc3)cc1)O2	inactive: 0.995
Cc1cc(C(=O)Nc2ccc3c(c2)C(=O)N(C)[C@@H]2CC[C@H](CC(=O)NCC(F)(F)F)O[C@@H]2CO3)no1	inactive: 0.982
COCC#Cc1ccc2c(c1)O[C@H](CN(C)S(=O)(=O)c1ccc(C)cc1)[C@H](C)CN([C@@H](C)CO)S2(=O)=O	inactive: 1.03
O=C(CCCCCCC(=O)N/N=C/[C@H](O)[C@@H](O)[C@H](O)CO)NO	inactive: 0.984
Cc1noc(C)c1S(=O)(=O)N(C)C[C@@H]1OCCCC[C@@H](C)Oc2ccc(NC(=O)Nc3cccc4ccccc34)cc2C(=O)N([C@@H](C)CO)C[C@H]1C	inactive: 1.04
NC(=O)C1CCCN1C(=O)C(Cc1c[nH]cn1)NC(=O)C1CCC(=O)N1 (stereo not given)	inactive: 0.995
C[C@@H]1CN([C@@H](C)CO)C(=O)c2cccc(NC(=O)C3CCOCC3)c2O[C@H]1CN(C)Cc1ccc(Oc2ccccc2)cc1	inactive: 1.01
C[C@H](O)C#Cc1ccc2c(c1)O[C@@H](CN(C)C(=O)CN(C)C)[C@H](C)CN([C@H](C)CO)S2(=O)=O	inactive: 1.02
CC(CN)(Cc1ccccc1Cl)C(=O)O (stereo not given)	inactive: 0.993
CN1CCC(=C2c3ccccc3CCc3sccc32)CC1.O=C(O)CC(O)C(=O)O	inactive: 1.07
CO[C@@H]1CN(C)C(=O)c2cc(NC(=O)Nc3ccccc3)ccc2OC[C@@H](C)N(C(=O)CN(C)C)C[C@H]1C	inactive: 1
O=C(Cn1c(=O)n(-c2ccccc2)c(=O)n1CC(=O)N1CCOCC1)N1CCOCC1	inactive: 1.01
Cc1noc(C)c1NC(=O)Nc1cccc2c1O[C@@H](CN(C)S(=O)(=O)c1ccccc1)[C@H](C)CN([C@H](C)CO)C2=O	inactive: 1.04
CC(C)NC(=O)Nc1ccc2c(c1)C(=O)N([C@H](C)CO)C[C@H](C)[C@H](CN(C)S(=O)(=O)c1cn(C)cn1)OCCCC[C@H](C)O2	inactive: 0.993
C[C@@H]1CN([C@H](C)CO)C(=O)c2cc(NC(=O)CCCCCC(=O)Nc3ccccc3N)ccc2O[C@@H](C)CCCCO[C@@H]1CN(C)C(=O)C1CCCCC1	inactive: 0.96
C[C@H]1CN([C@@H](C)CO)C(=O)c2cc(NC(=O)CCC(F)(F)F)ccc2O[C@@H]1CN(C)Cc1ccc(Cl)c(Cl)c1	inactive: 0.976
COC(=O)c1c(C(=O)OC)c2n(c(=O)c1-c1ccccc1)[C@@H]1c3ccccc3O[C@@](CO)([C@@H]1CO)N2C	inactive: 0.98
